# Laboratory results from PubChem BioAssay AID1347417 (National Center for Advancing Translational Sciences (NCATS), 2020).
# Values joined by “and” are separate entries in the source; they are usually repeats but may differ in a detail not shown here. Identical values can stand only once. In all, about 120,000 compounds went through this assay and about 5,300 (4.4%) were called active. Inconclusive means that the source gave no clear call. Such entries were picked first, then a sample of the others. The call rests on the fitted dose curve; in most records, active means well fitted inhibition curve with a large enough effect; inconclusive means small, poorly fitted or top-dose-only effect; inactive means no such curve, though single readings can be large or run the other way. Potencies of inconclusive entries are doubtful fits and often do not repeat.
# Assay: qHTS Primary assay for Inhibitors of Plasmodium falciparum Dd2 growth in vitro; further: nearly all actives have a fitted effect of over 65% in size
# Details: P. falciparum Dd2 growth, SYBR Green, 72 h; series mostly up to 28.9 µM
# Outline: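 Infected erythrocytes (Dd2, 0.3% parasitemia, 2.5% hematocrit final) are added to compound in RPMI-1640/Albumax II medium, grown 72 h at 37C in low oxygen, then lysed with saponin/Triton-X containing SYBR Green and read by fluorescence.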
# Potency means the concentration at half of the fitted maximal effect; tags describe the fitted curve by direction and shape.
Compound,Potency,outcome
COc1ccc(OCC2(C)COc3ccc(C(=O)NCCc4ccccc4)cc3N2)cc1 (stereo not given),"inconclusive: 2.51 µM [inhibitor, partial curve]",–
O=C1c2cc(N3CCOCC3)nc(-c3ccccc3F)c2CN1CC(F)(F)F,"inconclusive: 5.01 µM [inhibitor, partial curve, poor fit]",–
Cc1noc(C2CC3(CCN(C(=O)C4CCC4)CC3)CN2C)n1 (stereo not given),"inconclusive: 17.8 µM [inhibitor, single point]",–
COc1ccc(-c2cnc3n[nH]c(-c4sccc4C)c3n2)cc1,"inconclusive: 22.4 µM [inhibitor, single point]",–
CC(=O)Nc1ccccc1-c1c(C)nn2c1N(C(=O)Cc1ccccc1)CCC2,"inconclusive: 11.2 µM [inhibitor, partial curve]",–
CN(C)c1cc(N2CCCC(NC(=O)Cc3ccccc3F)C2)ncn1 (stereo not given),–,inactive [at 5.79 µM]
COc1ccc(C(=O)c2cn(Cc3cccc(C)c3)c3cc4c(cc3c2=O)OCCO4)cc1OC,active: 7.94 µM,–
CC1(CNc2ccccc2)COc2ccc(C(=O)N3CC[S+](=O)([O-])CC3)cc2N1 (stereo not given),"inconclusive: 5.62 µM [inhibitor, single point]",–
CCc1ccc(NC(=O)Cn2nnc(C(=O)Nc3cc(C)ccc3OC)c2N)cc1,inactive,–
O=C(NCCCc1ccccc1)c1ccc2nccn2c1,"inconclusive: 31.6 µM [inhibitor, single point]",–
Cc1ccc(S(=O)(=O)Nc2ccc3c(c2)c(C(=O)OC(C)C)c(C)n3S(=O)(=O)c2ccc(C)cc2)cc1,"inconclusive: 11.2 µM [inhibitor, single point]",–
O=C(CCC1N=C2c3ccccc3N=C(SCc3cccc(F)c3)N2C1=O)NCc1ccc(F)cc1 (stereo not given),"inconclusive: 17.8 µM [inhibitor, single point]",–
NCC(=O)N1CCC(n2nccc2NC(=O)c2ccc3c(c2)OCO3)CC1,"inconclusive: 0.0794 µM [inhibitor, full curve, poor fit]",–
Cc1noc2c(NCc3ccncc3)cc(-c3cccc(C(F)(F)F)c3)nc12,"inconclusive: 22.4 µM [inhibitor, single point]",–
COc1cccc(NC(=O)c2ccc(CNS(=O)(=O)c3ccc4c(c3)C(C)(C)C(=O)N4C)cc2)c1,inactive,–
O=C(/C=C/c1ccco1)Nc1ccc(Cl)c(-c2nc3cc(Cl)ccc3o2)c1,"inconclusive: 20 µM [inhibitor, single point]",–
Cc1cc2ccccc2n1-c1ccc(C(=O)N2CCC(C(=O)NCc3ccc(F)cc3)CC2)s1,"inconclusive: 17.8 µM [inhibitor, single point]",–
CN1C[C@@H]2CCCN3CCC[C@@H]([C@H]23)[C@H]1CCCC(=O)NCCCN1CCc2ccccc2C1,"inconclusive: 12.6 µM [inhibitor, single point]",–
O=C(Nc1cccc(Cl)c1)C1=NO[C@@H]2CN(c3cccnc3)C[C@H]12,inactive,–
COc1ccc(S(=O)(=O)N2CCCC(Cc3noc(-c4ccccc4)n3)C2)cc1 (stereo not given),active: 4.47 µM,–
COc1ccc(CNC(=O)Cn2ccc3cc(S(=O)(=O)N4CCCCCC4)ccc32)c(OC)c1,"inconclusive: 7.94 µM [inhibitor, partial curve, poor fit]",–
O=C(Cn1cccc1-c1nc(-c2ccccc2)no1)Nc1ccc(F)cc1,"inconclusive: 3.98 µM [inhibitor, single point]",–

Compound,Potency,outcome
Cc1ccc(C)c(CN2C(=O)c3ccccc3S(=O)c3ccc(C(=O)NCc4ccco4)cc32)c1 (stereo not given),"inconclusive: 12.6 µM [inhibitor, single point]",–
Cc1cc(C(=O)N2CCC(O)(c3ccccc3)[C@H](N3CCCC3)C2)n[nH]1 (stereo not given in full),–,inactive [at 5.79 µM]
Cc1ccc(NC(=O)Cn2cc(S(=O)(=O)NC(C)C)c(S(=O)(=O)NC(C)C)c2)cc1Cl,"inconclusive: 10 µM [inhibitor, single point]",–
COCCN1CCCC2(CCN(C(=O)c3oc4cc(C)ccc4c3C)C2)C1=O (stereo not given),inactive,–
O=C1NC2(CCN(C(=O)c3cccnc3)C2)N=C1c1ccncc1 (stereo not given),inactive,–
O=C1Nc2cc(Cl)ccc2Oc2cc(Oc3ccccc3)ccc21,inactive,–
COc1ccc(Cn2ccc3nc(C)c(C(=O)Nc4ccc(OC)cc4OC)cc3c2=O)cc1,"inconclusive: 17.8 µM [inhibitor, single point]",–
Cc1cnc(C(=O)NC2C[C@H]3CC[C@@H](C2)N3C(=O)C2CCCCCC2)cn1 (stereo not given in full),inactive,–
O=C(c1ccnc(-c2ccccc2-c2ccccc2)c1)N1CCCC1,"inconclusive: 10 µM [inhibitor, single point]",–
O=C1CC2(CCN(Cc3ccc(F)cc3)CC2)Oc2ccccc21,"inconclusive: 2.82 µM [inhibitor, partial curve, poor fit]",–
CS(=O)(=O)Nc1cc(-c2noc([C@@H]3CCCN3C3CCOCC3)n2)ccn1,inactive,–
COc1ccc(-c2nc3scc(CCNS(=O)(=O)c4cccc(C(C)=O)c4)n3n2)cc1,"inconclusive: 10 µM [inhibitor, single point]",–
O=C(CSc1nc2c(oc3ccccc32)c(=O)[nH]1)Nc1cccc(Cl)c1,inactive,–
CN(C)c1cccc(C(=O)Nc2ccc(-c3nc4ccccc4s3)cc2)c1,"inconclusive: 10 µM [inhibitor, single point]",–
COCC1CN(C2CCC2)CC12CCN(C(=O)c1ccc(F)cc1)CC2 (stereo not given),"inconclusive: 7.94 µM [inhibitor, single point]",–
O=C1NCCN2CC3(CCN(S(=O)(=O)c4ccccc4)CC3)CC12 (stereo not given),inactive,–
COc1cc(-c2onc(C)c2C(=O)NCc2cccc(F)c2F)cc(OC)c1OC,"inconclusive: 1 µM [inhibitor, partial curve, poor fit]",–
COc1cc(-c2cc(C)c3c(OC)ccc(OC)c3n2)cc2c1OCCNC2,active: 11.2 µM,–
CCc1ccc(Oc2nc3c(C)cccn3c(=O)c2/C=C(\C#N)c2nc3ccccc3s2)cc1,inactive,–
Cc1ccc(CNC(=O)c2ccc3c(c2)CN(Cc2ccc(N(C)C)cc2)CCO3)cc1,inactive,–
CC(C)CCN1CCC2(Cc3ccccc3NC2=O)C1 (stereo not given),"inconclusive: 1.58 µM [inhibitor, partial curve, poor fit]",–
O=C1NC(=NC2CCCCC2)C2(CCN(Cc3cccnc3)C2)N1c1cc(F)cc(F)c1 (stereo not given),"inconclusive: 4.47 µM [inhibitor, partial curve]",–

Compound,Potency,outcome
COc1ccc(C(=O)N[C@H]2C[C@H]3C(=O)NC[C@@H](CCC(=O)N4CCc5ccccc54)N3C2)cc1,"inconclusive: 8.91 µM [inhibitor, single point]",–
Cc1ccc(NC(=O)CCSc2nc(-c3ccc4c(c3)OCO4)cc(C(F)(F)F)n2)cc1,"inconclusive: 11.2 µM [inhibitor, partial curve]",–
CN(Cc1ccccc1C(F)(F)F)S(C)(=O)=O,inactive,–
CC(=O)N1CC2(Cc3ccccc31)CN([S+](=O)([O-])c1c(C)noc1C)C2,inactive,–
COCCN1C(=O)C(CC(=O)O)=C2CCCCC21 (stereo not given),inactive,–
COc1cc(/C=C/c2nc(C#N)c(NC(C)c3ccccc3)o2)cc(OC)c1OC (stereo not given),"inconclusive: 7.08 µM [inhibitor, partial curve, poor fit]",–
O=C1[C@@H]2C[C@@H](O)CN2C2(CN(Cc3cccs3)C2)C(=O)N1Cc1ccccc1F,"inconclusive: 20 µM [inhibitor, single point]",–
COc1ccc(C)cc1C(=O)N1CCc2onc(-c3ccccc3F)c2C1,"inconclusive: 8.91 µM [inhibitor, single point]",–
COC(=O)c1ccc2c(c1)nc1n2[C@@H](CNC2CCOCC2)COC1,inactive,–
CN(C(=O)c1cc2ccccc2n1C)C1CCCN(C2Cc3ccccc3C2)C1 (stereo not given),"inconclusive: 10 µM [inhibitor, single point]",–
C#CCNC(=O)c1nc(-c2ccccc2OC)c2ccccn12,"inconclusive: 5.62 µM [inhibitor, partial curve, poor fit]",–
COc1ccc(C(=O)N2CCCN(c3cc(-c4ccc(Cl)cc4)[nH]n3)CC2)c(C)c1,"inconclusive: 4.47 µM [inhibitor, partial curve, poor fit]",–
COC(=O)c1ccc(NC(=O)N2CCC(CCOc3ccc(F)cc3)C2)cc1 (stereo not given),"inconclusive: 1.78 µM [inhibitor, partial curve, poor fit]",–
COc1cc(O)ccc1CN1CCCC(COc2ccccc2C(=O)N2CCOCC2)C1 (stereo not given),"inconclusive: 17.8 µM [inhibitor, single point]",–
Cc1ccc(-n2ncc3c(N(CCO)Cc4ccccc4)ncnc32)cc1,"inconclusive: 11.2 µM [inhibitor, single point]",–
O=C(NC(Cn1cccn1)c1ccccc1)c1ccc2nccnc2c1 (stereo not given),inactive,–
CCOCCCNC(=O)CN1C(=O)c2c(c3ccccc3n2C)C1c1ccc(OC)cc1 (stereo not given),"inconclusive: 0.0562 µM [inhibitor, full curve, poor fit]",–
CCOc1ccccc1CN1CCC(Cc2nc(-c3cccnc3)n[nH]2)C1 (stereo not given),"inconclusive: 0.224 µM [inhibitor, partial curve, poor fit]",–
CN1C(=O)[C@H]2CN(Cc3ccccc3Cl)C[C@H]2C1=O,inactive,–
COc1ccccc1CNC(=O)CCCn1c(=O)c2cccn2c2ccccc21,"inconclusive: 12.6 µM [inhibitor, single point]",–
O=C(Nc1ccc(Cl)nc1)c1ccc2cc[nH]c2n1,"inconclusive: 10 µM [inhibitor, partial curve] and inconclusive: 28.2 µM [inhibitor, partial curve, poor fit]",–
